Here are results for 19 variants from the RNAGym collection of RNA variant scans (doi:10.7554/elife.90254).

Read counts are not given, so values of variants with three or more changes are uncertain.

B1: LINE1-full (parent)
chain: UACGUAGGUGGUUUUCCCCUGAUAGUGCUAAGGGGGCCUGGAAGUUUGGACUGGGCAGAGCUCAACACAGCGUGGCAAAGUGGCUGUGGCUAGACUGCCUCUCUGGAUUCCUCGUCACUCAGCAGGGCAUCUCUGAGAGAAAUGCC

In the data set the parent is B1. Put plainly: self-cleavage, relative activity (ratio to wild type); higher = more cleavage; in vitro, sequencing; the parent is a self-cleaving ribozyme.
For the variant UACGUAGGUGGUUUUCCCCUGAUAGUGCUAUGGGGGCCUGGAAGUUUGGACUGGGCAGAGCUCAGCACAGCGUGGCAAAGUGGCUGUGGCUAGACUGCCUCUCUGGAUUCCUCGUCACUCAGCUGGGCAUCUCUGAGAGAAAUGCC [A31U A65G A124U], the self-cleavage worked out at 0.06.

In the case of UACGUAGGUGGUUUUCCCCUGAUAGUGCUAGGGGGGCCUGGAAGUUUGGACUGGGCAGAGCUCAACACAGCGUGGCAAAGUGGCUGUGGCUAGACUGCCUCUCUGGAAUCCCCGUCACUCAGCAGGGCAUCUCUGAGAGAAAUGCC [A31G U108A U112C], the self-cleavage came to 1.46.

On to UACGUAGGUGGUUUUCCCCUGAUAGUGCUAUGGGGGCCUGGAAGUUUGGACUGGGCAGAGCUCAACACAGCGUGGCAAAGUGGCUGUGGCUAGACUGCCUCUCUGGAUUCCUCGUCGCUCAGCAGGGCAUCUCUGUGAGAAAUGCC [A31U A117G A136U], for which the self-cleavage was 0.66.

As for UACGUAGGUGGUUUUCCCCUGAUAGUGCUAGGGGGGCCUGGAAGUUUGGACUGGGCAGAGCUCAACACAGCGCGGCAAAGUGGCUGAGGCUAGACUGCCUCUCUGGAUUCCUCGUCACUCAGCUGGGCAUCUCUGAGAGAAAAGCC [A31G U73C U87A A124U U143A], the self-cleavage is 0.13.

Regarding UACGUAGGUGGUUUUCCCCUGAUAGUGCUAUGGGGGCCUGGAGGUUUGGACUGGGCAGAGCUCAACACAGCGUGGCAGAGUGGCUGUGGCUAGACUGCCUCUCUGGAUUCCUCGUCACUCAGCAGGGCAUCUCUGAGAGAAAUGCC [A31U A43G A78G], the self-cleavage came to 1.49.

For the variant UACGUAGGUGGUUUUCCCCUGAUAGUGCUAUGGGGGCCUGGAAGUUUGGACUGGGCAGAGCUCAACACAGCGUGGCAAAGUGGCUGUGGCUAGGCUGCCUCUCUGGAUUCCCCGUCACUCAGCAGGGCAUCUCUGAGAGAAAUGCC [A31U A94G U112C], the self-cleavage came out at 0.32.

For UACGUAGGUGGUUUUCCCCUGAUAGUGCUAUGGGGGCCUGGAAGUUUGGACUGGGCAGAGCUCAGCACAGCGUGGCAAAGUGGCUGUGGCUAGACUGCCUCCCUGGAUUCCUCGUCACUCAGCAGGGCAUCUCUGAGAGAAAUGCC [A31U A65G U102C], the self-cleavage was found to be 0.

As for UACGUAGGUGGUUUUCCCCUGAUAGUGCUAUGGGGGCCUGGAAGUUUGGACUGGGCAGAGCUCAACACAGCGUGGCAAGGUGGCUGUGGCUAGACUGCCUCUCUGGAUUCCUCGUCACUCAGCGGGGCAUCUCUGAGAGAAAUGCC [A31U A79G A124G], the self-cleavage was 0.

For UACGUAGGUGGUUUUCCCCUGAUAGUGCUAUGGGGGCCUGGAAGUUUGGACUGGGCAGAGCUCAACACAGCGUGGCAAGGUGGCUGUGGCUAGACUGCCUCUCUGGAUUCCUCGUCACUCAGCAGGGCAUCACUGAGAGAAAUGCC [A31U A79G U132A], the self-cleavage is 1.31.

Consider UACGUAGGUGGUUUUCCCCUGAUAGUGCUAGGGGGGCCUGGAAGUUUGGACUGGGCAGAGCUCAACACAGCGUGGCAAAGUGGCUGUGGCUAGACUGCCUCUCUGGAUUCCCCGUCACUCAGCAGGGCAUCACUGAGAGAAAUGCC [A31G U112C U132A], for which the self-cleavage was found to be 0.99.

Regarding UACGUAGGUGGUUUUCCCCUGAUAGUGCUAUGGGGGCCUGGAAGUUUGGACUGGGCAGAGCUCAACACAGCGUGGCAAAGUGGCUGUGGCUAGACUGCCUCUCUGGAUUCCUCGUCACUCAGCAGGGCGUCUCUUAGAGAAAUGCC [A31U A129G G135U], the self-cleavage turned out to be 0.78.

Turning to UACGUAGGUGGUUUUCCCCUGAUAGUGCUAUGGGGGCCUGGAAGUUUGGACUGGGCAGAGCUCAACACAGCGUGGCAGAGUGGCUGUGGCUAGACUGCCUCUCUGGAUUCCUCGCCACUCAGCAGGGCAUCUCUGAGAGAAAUGCC [A31U A78G U115C], the self-cleavage came out at 2.3.

As for UACGUAGGUGGUUUUCCCCUGAUAGUGCUAUGGGGGCCUGGAAGUUUGGACUGGGCUGAGCUCAACACAGCGUGGCAAAGUGGCUGUGGCUAGACUGCCUCUCUGGUUUCCUCGUCACUCAGCAGGGCAUCUCUGAGAGAAAUGCC [A31U A57U A107U], the self-cleavage worked out at 0.23.

Regarding UACGUAGGUGGUUUUCCCCUGAUAGUGCUAUGGGGGCCUGGAAGUUUGGACUGGGCAGAGCUCAACACUGCGUGGCAAAGUGGCUGUGGCUAGACUGCCUCUCUGGAUUCCUCGUCACUCGGCAGGGCAUCUCUGAGAGAAAUGCC [A31U A69U A121G], the self-cleavage came out at 0.12.

For the variant UACGUAGGUGGUUUUCCCCUGAUAGUGCUAUGGGGGCCUGGAUGUUCGGACUGGGCAGAGCUCAGCACAGCGUGGCAAAGGGGCUGUGGCUAGACUGCCUCUCUGGAUUCCUCGUCACUCAGCAGGGCAUCUCUGAGAGAAAUGCC [A31U A43U U47C A65G U81G], the self-cleavage was found to be 0.

Turning to UACGUAGGUGGUUUUCCCCUGAUAGUGCUAUGGGGGCCUGGAAGUUUGGACUGGGCAGGGCUCAACACGGCGUGGCAAAGUGGCUGUGGCUAGACUGCCUCUCUGGAUUCCUCGUCACUCAGCAGGGCAUCUCUGAGAUAAAUGCC [A31U A59G A69G G139U], the self-cleavage was 0.29.

As for UACGUAGGUGGUUUUCCCCUGAUAGUGCUAUGGGGGCCUGGGAGUUUGGACUGGGCAGAGCUCAACACAGCGUGGCAAAGUGGCUGUGGCUAGACCGCCUCUCUGGAUUCCUCGUCACUCAGCAGGGCAUCUCUGAGAGAAAUGCC [A31U A42G U96C], the self-cleavage was 0.14.

Turning to UACGUAGGUGGUUUUCCCCUGAUAGUGCUAUGGGGGCCUGGAGGUUUGGACUGGGCAGAGCUCAACACAGCGUGGCAAAGUGGCUGUGGCUAGACUGCCUCUCUGGAUUCCUCGUCACUCAGCAGGGCUUCUCUGAGAGAAAUGCC [A31U A43G A129U], the self-cleavage was 0.94.

In the case of UACGUAGGUGGUUUUCCCCUGAUAGUGCUAUGGGGGCCUGGAAGUUUGGACUGGGCAGAGCUCGACACAGCGUGGCAAAGUGGCUGUGGCUAGACUGCCUCUCUGGAUUCCUCGUCACUCAGCAGGGCAUCUCAGAGAGAAAUGCC [A31U A64G U134A], the self-cleavage is 0.29.
